The source of these data is PMC4336329 (PLoS ONE, 2015).

Among all 310,000 compounds or so, about 2,200 (0.71%) showed an effect of 50% or more. The effect is printed as a negative number. The list shows a part of the results.

The test deals with human ether-à-go-go-related gene (hERG) potassium channel (human, UniProt Q12809). Nature of the test: primary screen, population patch clamp on CHO cells stably expressing hERG.
Chain of human ether-à-go-go-related gene (hERG) potassium channel (Q12809 whole entry, looked up): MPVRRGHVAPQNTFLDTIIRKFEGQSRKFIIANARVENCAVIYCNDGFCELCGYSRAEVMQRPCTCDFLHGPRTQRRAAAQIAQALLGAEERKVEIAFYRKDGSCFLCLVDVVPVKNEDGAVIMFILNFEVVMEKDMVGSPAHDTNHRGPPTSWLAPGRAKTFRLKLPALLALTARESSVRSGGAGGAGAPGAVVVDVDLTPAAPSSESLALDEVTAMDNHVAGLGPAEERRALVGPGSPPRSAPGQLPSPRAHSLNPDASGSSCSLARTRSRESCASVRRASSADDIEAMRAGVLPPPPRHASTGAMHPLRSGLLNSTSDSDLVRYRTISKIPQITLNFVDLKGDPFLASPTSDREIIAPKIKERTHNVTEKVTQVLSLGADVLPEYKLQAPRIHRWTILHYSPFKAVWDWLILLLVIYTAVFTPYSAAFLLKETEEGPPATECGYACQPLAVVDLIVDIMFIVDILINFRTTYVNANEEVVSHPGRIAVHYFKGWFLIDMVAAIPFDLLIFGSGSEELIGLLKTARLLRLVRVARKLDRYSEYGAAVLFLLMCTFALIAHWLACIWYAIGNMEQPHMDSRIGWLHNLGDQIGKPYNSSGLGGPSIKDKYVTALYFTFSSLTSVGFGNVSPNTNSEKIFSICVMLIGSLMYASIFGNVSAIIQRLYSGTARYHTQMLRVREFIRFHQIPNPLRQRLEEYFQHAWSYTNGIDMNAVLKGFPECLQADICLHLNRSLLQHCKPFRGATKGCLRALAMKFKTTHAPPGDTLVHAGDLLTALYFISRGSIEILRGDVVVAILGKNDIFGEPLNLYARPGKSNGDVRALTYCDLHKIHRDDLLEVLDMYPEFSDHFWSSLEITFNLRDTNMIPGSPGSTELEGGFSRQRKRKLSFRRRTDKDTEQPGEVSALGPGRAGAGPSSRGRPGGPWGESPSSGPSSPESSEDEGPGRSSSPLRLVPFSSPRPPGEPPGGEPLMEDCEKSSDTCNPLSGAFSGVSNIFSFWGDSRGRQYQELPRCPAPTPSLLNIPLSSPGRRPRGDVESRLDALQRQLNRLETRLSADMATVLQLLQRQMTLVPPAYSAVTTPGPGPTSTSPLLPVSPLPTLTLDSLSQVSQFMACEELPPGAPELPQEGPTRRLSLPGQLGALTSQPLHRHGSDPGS
Turning to `O=[N+]([O-])c1ccc(N/N=C/c2cccs2)nc1`, the “hERG current change (%, negative = inhibition) at 1uM” value amounted to 14.9%.
`COc1ccc(/C=N/NC(=O)c2cccc(S(=O)(=O)N3CCCC3)c2)cc1O`: the “hERG current change (%, negative = inhibition) at 1uM” value was determined as 4.09%.
In the case of `CC(=O)NCC(=O)OC(C(=O)c1ccccc1)c1ccc(Cl)cc1` (stereo not drawn), the “hERG current change (%, negative = inhibition) at 1uM” value worked out at 6.48%.
For `O=C(O)c1sc2cc(C(F)(F)F)cnc2c1-c1cccs1` the value was 10.4%; for `COc1ccccc1NC(=O)CN(c1ccc([N+](=O)[O-])cc1)S(=O)(=O)c1ccccc1`, 5.71%; for `COC(=O)CSc1ccc(S(=O)(=O)N2CCCCCC2)cc1[N+](=O)[O-]`, 9.43%.
For `Cc1ncccc1C(=O)N1CCCC(CNC(=O)C2(c3ccc(Cl)cc3)CC2)C1` (stereo not drawn), the “hERG current change (%, negative = inhibition) at 1uM” value is given as 14.4%.
Regarding `Cc1cccc(NC(=O)c2cc(S(=O)(=O)N3CCCCC3)c[nH]2)c1C`, the “hERG current change (%, negative = inhibition) at 1uM” value came to 9.14%.
With `O=C(Nc1ccc(F)cc1)c1ccc2nc[nH]c2c1`, the “hERG current change (%, negative = inhibition) at 1uM” value came out at 6.88%.
In the case of `COC(=O)/C=C(\Oc1ccccc1)C1(O)CCCCC1`, the “hERG current change (%, negative = inhibition) at 1uM” value was determined as 7.17%.
In the case of `O=C(O)c1ccc(NC(=S)NC(=O)c2cncc(Br)c2)cc1`, the “hERG current change (%, negative = inhibition) at 1uM” value was 17.7%.
As for `O=C1C2C3c4ccccc4C(c4ccccc43)C2C(=O)N1Cc1cccnc1` (stereo not drawn), the “hERG current change (%, negative = inhibition) at 1uM” value amounted to 2.65%.
Take `COCC1CCN(C(=O)c2cc(COc3ccc4ncccc4c3)on2)CC1`: the “hERG current change (%, negative = inhibition) at 1uM” value turned out to be 13.2%.
Consider `CC1(c2ccccc2)NC(=O)N(CC(=O)Nc2cccc(C#N)c2)C1=O` (stereo not drawn), for which the “hERG current change (%, negative = inhibition) at 1uM” value came to 7.63%.
On to `O=C(c1cc2ccccc2oc1=O)N1CCSC1c1ccco1` (stereo not drawn), for which the “hERG current change (%, negative = inhibition) at 1uM” value turned out to be 11.7%.
For `O=C(Nc1ccon1)c1cc2c(s1)CCCCCC2` the value was -7.68%; for `CCc1c(C#N)c(SCc2c(C)noc2C)nc2c1C(=O)CC(C)(C)C2`, 0.201%.
On to `O=C1c2cc(O)c(O)cc2S(=O)(=O)C1c1ccccc1` (stereo not drawn), for which the “hERG current change (%, negative = inhibition) at 1uM” value is 10.7%.
Consider `CC1CCN(C(=O)CCNS(=O)(=O)c2ccc3c(c2)c(=O)n(C)c(=O)n3C)CC1`, for which the “hERG current change (%, negative = inhibition) at 1uM” value came to 14.1%.
Regarding `Cc1cc(C)c2c(N)c(S(=O)(=O)Cc3ccccc3)sc2n1`, the “hERG current change (%, negative = inhibition) at 1uM” value is -5.52%.
Then `Cc1ccc(/C=N/OC(=O)c2nn(C)cc2Cl)cc1`, with 13.8%; and `O=C(COc1ccc(Cl)cc1Cl)N/N=C1\CCCc2ccccc21`, with 6.54%.
For the compound `Cc1ccc2nc3n(c2c1)CCCN3`, the “hERG current change (%, negative = inhibition) at 1uM” value is given as 8.69%.
Take `CCOc1ccc(NC(=O)CSc2ccc3nnc(-c4cccnc4)n3n2)cc1`: the “hERG current change (%, negative = inhibition) at 1uM” value is on record as -25.1%.
As to `C=CCn1c(CCCOc2ccc(Cl)cc2Cl)n[nH]c1=S`, the “hERG current change (%, negative = inhibition) at 1uM” value is recorded as 14.9%.
For the compound `Cn1ccnc1CN1CCN(C(=O)c2cc(COc3ccc(F)c(F)c3)on2)CC1`, the “hERG current change (%, negative = inhibition) at 1uM” value is -0.0734%.
Regarding `O=C(CSc1ccccc1)NCCCc1ccccc1`, the “hERG current change (%, negative = inhibition) at 1uM” value is given as -5.86%.
Turning to `CS(=O)(=O)n1nc(C(=O)N2CCOCC2)nc1N`, the “hERG current change (%, negative = inhibition) at 1uM” value is listed as 9.07%.
On to `Cc1csc2nnc(N)n12`, for which the “hERG current change (%, negative = inhibition) at 1uM” value is -0.437%.
Take `CC(C)C(C(=O)Nc1ccncc1)c1ccc(Cl)cc1` (stereo not drawn): the “hERG current change (%, negative = inhibition) at 1uM” value was 15.3%.
With `Cc1ccc2c(CSc3nc4nc(C)cc(C)n4n3)cc(=O)oc2c1`, the “hERG current change (%, negative = inhibition) at 1uM” value is recorded as 5.08%.
Take `Cn1c(=O)n(Cc2ccco2)c(=N)c2c3c(sc21)CCCC3`: the “hERG current change (%, negative = inhibition) at 1uM” value was 1.03%.
For `COc1ccc(CCNS(=O)(=O)c2ccc(Cl)s2)cc1OC` the value was 4.51%.
As for `CN(Cc1ccc(F)cc1)C(=O)c1ccc(NS(=O)(=O)c2ccccc2)cc1`, the “hERG current change (%, negative = inhibition) at 1uM” value is -1.99%.
In the case of `O=C(Nc1ccc(S(=O)(=O)Nc2ncccn2)cc1)c1ccccc1NS(=O)(=O)c1ccc(F)cc1`, the “hERG current change (%, negative = inhibition) at 1uM” value was found to be 14%.
Consider `Cc1ccc(-c2noc(CCC(=O)Nc3cccc(C#N)c3)n2)cc1`, for which the “hERG current change (%, negative = inhibition) at 1uM” value is given as -3.58%.
As to `COc1cccc(-c2noc(C3CCCN(S(=O)(=O)c4cccc(Cl)c4C)C3)n2)c1` (stereo not drawn), the “hERG current change (%, negative = inhibition) at 1uM” value was 4.54%.
Turning to `CCOC(=O)c1cc2cc3ccccc3cc2oc1=O`, the “hERG current change (%, negative = inhibition) at 1uM” value was found to be 12.6%.
Then `CC1CN(C(=O)CCCN2C(=O)c3ccccc3C2=O)CC(C)O1` (stereo not drawn), with 15.7%.
Regarding `CC[C@@H](C)[C@H](NS(=O)(=O)c1ccc(C)cc1)C(=O)N1CCC(C(=O)NCC(=O)O)CC1`, the “hERG current change (%, negative = inhibition) at 1uM” value stood at 6.57%.
In the case of `CCc1cc(C(=O)N=Nc2c(O)[nH]c3c(Br)cc(Br)cc23)c2ccccc2n1`, the “hERG current change (%, negative = inhibition) at 1uM” value amounted to 15.5%.
Turning to `CCCCCC(=O)Nc1ccc(C2C(=O)c3ccccc3C2=O)cc1`, the “hERG current change (%, negative = inhibition) at 1uM” value worked out at 2.75%.
For `COc1ccccc1CNCC(O)Cn1c2ccccc2c2ccccc21` (stereo not drawn) the value was 0.674%; for `Cc1ccc(N2CC(C(=O)N3CCCCCC3)CC2=O)cc1` (stereo not drawn), 21.1%.
In the case of `CN1/C(=C\C=C2/C(=O)Oc3ccccc3C2=O)C(C)(C)c2ccccc21`, the “hERG current change (%, negative = inhibition) at 1uM” value amounted to 9.75%.
On to `CC(=O)c1cc(CC=C(C)C)c(O)c(CC=C(C)C)c1O`, for which the “hERG current change (%, negative = inhibition) at 1uM” value is reported as 4.07%.
For `CCOC(=O)C1C(=O)NC(c2ccccc2)=NC1c1ccc(Cl)cc1` (stereo not drawn) the value was 7.02%.
In the case of `Cc1ccc(-n2nnnc2-c2ccccc2)cc1`, the “hERG current change (%, negative = inhibition) at 1uM” value came out at 12.8%.
For the compound `CCc1ccccc1NC(=O)Nc1ccc2c(c1)OCO2`, the “hERG current change (%, negative = inhibition) at 1uM” value is reported as 12.6%.
Turning to `Clc1cc(NC2CCCCC2)ncn1`, the “hERG current change (%, negative = inhibition) at 1uM” value amounted to 24.7%.
With `CCc1ccc(C(=O)COC(=O)CNC(=O)c2ccc(N3C(=O)c4ccccc4C3=O)cc2)cc1`, the “hERG current change (%, negative = inhibition) at 1uM” value amounted to 5.3%.
As to `COC(=O)c1ccc(C2C(C(=O)Nc3ccc(C)cc3C)=C(C)Nc3ncnn32)cc1` (stereo not drawn), the “hERG current change (%, negative = inhibition) at 1uM” value was 5.02%.
For the compound `CCOCCc1c(O)nc(SCCOc2ccc(C)c(C)c2)[nH]c1=O`, the “hERG current change (%, negative = inhibition) at 1uM” value turned out to be 2.59%.
Turning to `CN(C)S(=O)(=O)c1ccc(C(=O)Nc2nnc(SCc3ccccc3)s2)cc1`, the “hERG current change (%, negative = inhibition) at 1uM” value came out at 0.463%.
Consider `O=C(CN1C(=O)CSc2ccccc21)Nc1ccccc1C(=O)N1CCOCC1`, for which the “hERG current change (%, negative = inhibition) at 1uM” value stood at 7.64%.
In the case of `CN(c1ccccc1)S(=O)(=O)c1cccc(NC(=O)c2nn(C)c(=O)c3ccccc23)c1`, the “hERG current change (%, negative = inhibition) at 1uM” value is 9.84%.
`Cc1ccc(C(=O)COC(=O)CCN2C(=O)C3C4CCC(C4)C3C2=O)cc1C` (stereo not drawn): the “hERG current change (%, negative = inhibition) at 1uM” value came to 14.6%.
